Measurements published in PubChem BioAssay AID1345083 (National Center for Advancing Translational Sciences (NCATS), 2018).
Where “and” joins values, the source holds several entries; their conditions need not be identical. Identical values can stand only once. Out of some 94,000 compounds screened, about 6,200 (6.6%) were called active. The inconclusive results got no clear call from the source; some entries with a clear call stand among them for comparison. Calls come from the whole dose curve; as a rule, active = well fitted inhibition curve with a large enough effect; inconclusive = small, poorly fitted or top-dose-only effect; inactive = flat fitted curve, though single readings scatter. Where the call is inconclusive, the potency comes from a doubtful curve fit.

Test: Cytotoxic Profiling in HEK 293 Cell Line of Diverse Libraries Using Quantitative High-Throughput Screening; note: nearly all actives have a fitted effect of over 60% in size
Conditions: HEK 293 viability, ATP luminescence (CellTiter-Glo), 48-72 h; series mostly up to 115 µM
Method in brief: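 250 HEK 293 cells/well; compound by pintool; incubated 48 or 72 hr at 37 degree Celsius; CellTiter-Glo added, 10 min RT, luminescence imaged.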
Potency is the fitted concentration of half-maximal effect; tags give direction and shape of the fitted curve.

SMILES	Potency
CCc1noc(-c2cn(C3CCN(C(=O)c4ccc(Cl)cc4)C3)nn2)n1 (stereo not drawn)	inconclusive: 20 µM [inhibitor, full curve]
CCCc1noc(-c2cn(C3CCN(C(=O)Cc4cccc(OC)c4)CC3)nn2)n1	inconclusive: 79.4 µM [inhibitor, partial curve, poor fit]
O=C(NC1CCN(c2cc(-c3ccc(Cl)cc3)[nH]n2)CC1)c1cccc(F)c1	inconclusive: 28.2 µM [inhibitor, partial curve]
Cn1ncc2c(C(=O)NCc3ccc(F)cc3)cc(C(C)(C)C)nc21	inconclusive: 100 µM [inhibitor, partial curve, poor fit] and active: 100 µM
COc1cc(OC)cc(-c2nc(C3CC(=O)N(c4ccc(F)c(Cl)c4)C3)no2)c1 (stereo not drawn)	inconclusive: 89.1 µM [inhibitor, single point]
N#Cc1ccc(S(=O)(=O)N2CCC(Cc3nc(-c4cccnc4)n[nH]3)C2)cc1 (stereo not drawn)	inconclusive: 89.1 µM [inhibitor, single point]
O=C(NCc1cccc(Cl)c1)c1ccc2nc(-c3cccnc3)oc2c1	inconclusive: 79.4 µM [inhibitor, single point]
Cc1ccc2c(n1)OC(COc1ccccc1)CN(c1ccccc1)C2=O (stereo not drawn)	inconclusive: 39.8 µM [inhibitor, single point]
Cc1ccccc1C(=O)NC1CCN(c2ccnc3ccnn23)C1 (stereo not drawn)	inconclusive: 63.1 µM [inhibitor, full curve]
O=C(NCCc1noc(-c2ccncc2)n1)c1ccccc1	inactive
O=C(c1ccc(Cl)nc1)N1CCC(C(=O)N2CCCC(c3nc4ccncc4[nH]3)C2)CC1 (stereo not drawn)	inactive
COc1cc(OC)cc(C(=O)N2CCCN(S(C)(=O)=O)c3ccccc32)c1	inconclusive: 6.31 µM [inhibitor, full curve, poor fit]
COCC(=O)Nc1cc(-c2ccncc2)nn1-c1ccccc1	inactive
Cn1ncc2c(C(=O)NCc3cccc(C(F)(F)F)c3)cc(-c3cccnc3)nc21	inconclusive: 44.7 µM [inhibitor, partial curve, poor fit]
COC[C@@H]1CCCN1Cc1cn(-c2ccccc2)nc1-c1ccc(OC)cc1F	inconclusive: 56.2 µM [inhibitor, partial curve, poor fit]
CC1CCC2(CC1)NC(=O)N(CC(=O)Nc1cccc(F)c1)C2=O (stereo not drawn)	inactive
O=C(C1CCCC1)N1CCC(CCOc2ccc(F)cc2)C1 (stereo not drawn)	inconclusive: 35.5 µM [inhibitor, partial curve, poor fit]
O=C(c1cccc(OC2CN(Cc3ccc(F)cc3Cl)C2)c1)N1CCOCC1	inconclusive: 50.1 µM [inhibitor, partial curve, poor fit]
O=[S+]([O-])(c1cccc(C(F)(F)F)c1)N1CCN(Cc2ccccc2-c2cccnc2)CC1	inconclusive: 50.1 µM [inhibitor, partial curve, poor fit]
CC(C(=O)N1CCc2onc(-c3ccc(C(F)(F)F)cc3)c2C1)N1CCCC1=O (stereo not drawn)	inconclusive: 50.1 µM [inhibitor, partial curve, poor fit]
COc1ccc(CN2CC3(CCN(C(=O)Nc4ccc5c(c4)OCCO5)CC3)C2=O)cc1	inconclusive: 79.4 µM [inhibitor, partial curve, poor fit]

SMILES	Potency
CCOc1ncccc1C(=O)N(C)Cc1nc(-c2ccccc2)no1	inconclusive: 79.4 µM [inhibitor, partial curve, poor fit]
Cc1cc(C(=O)N2CCCN(S(C)(=O)=O)C(c3ccccc3)CC(=O)NCC2)n(C)n1 (stereo not drawn)	inactive
Cc1cc(CN(C)C(=O)CC(c2ccccc2)c2ccccc2C)n[nH]1 (stereo not drawn)	inconclusive: 89.1 µM [inhibitor, single point]
O=C(Cc1c[nH]c2ncc(-c3cccc(CO)c3)cc12)N1CCOCC1	inconclusive: 50.1 µM [inhibitor, partial curve, poor fit]
COc1cccc(-c2cc(C(=O)N3CCN(c4ncccn4)CC3)c3cnn(C)c3n2)c1	inconclusive: 56.2 µM [inhibitor, partial curve, poor fit]
COc1ccc(N2CC(c3noc(-c4ccc(C(C)(C)C)cc4)n3)CC2=O)cc1OC (stereo not drawn)	active: 39.8 µM
CCNC(=O)N[C@H]1CO[C@H]2[C@@H]1OC[C@@H]2n1nnnc1Oc1cccc(N(C)C)c1	inactive
O=C(c1ccccc1Cl)N1CCC(C(=O)N2CCC(c3nc4ncccc4[nH]3)CC2)C1 (stereo not drawn)	inactive
COc1ccccc1Nc1ccnc(N2CCC(C(=O)NCc3ccc(F)cc3)CC2)n1	inconclusive: 11.2 µM [inhibitor, full curve, poor fit]
COc1cccc(NC(=O)N2CCCC(O)(CNS(C)(=O)=O)CC2)c1 (stereo not drawn)	inactive
O=C(Cc1ccccc1Cl)N1CCC2(CC1)NC(=O)N(c1cccc(F)c1)N2	inconclusive: 7.94 µM [inhibitor, full curve]
CCc1ccc(NC(=O)c2ccc(CN3C(=O)NC4(CCOCC4)C3=O)cc2)cc1	inconclusive: 35.5 µM [inhibitor, partial curve, poor fit]
CCCCCC(=O)N1CC[C@@H](CC(=O)NCc2cccnc2)[C@@H](CC)C1	inactive
CCOC(=O)C1=C(C)N=C2SC=C(CC(=O)Nc3cccc(OC)c3)N2C1c1cccc(OC)c1 (stereo not drawn)	inconclusive: 79.4 µM [inhibitor, partial curve]
COc1ccc(CNC(=O)C2CN(C3CCCC3)C(=O)N2)cc1 (stereo not drawn)	inactive
CC(=O)N1CCn2c(nn(-c3ccc([N+](=O)[O-])cc3)c2=O)C1	inconclusive: 11.2 µM [inhibitor, full curve, poor fit]
Cn1cccc1C(=O)N[C@@H]1CN(c2ncccn2)C[C@H]1CO	inconclusive: 89.1 µM [inhibitor, partial curve, poor fit]
COc1cccc([S+](=O)([O-])N2CCCC(C(=O)N3CCC(N4CCOCC4=O)CC3)C2)c1 (stereo not drawn)	inactive
CN(C)c1cccc(C(=O)N2CCCC(n3cc(-c4nc(-c5ccccc5)no4)nn3)C2)c1 (stereo not drawn)	inconclusive: 44.7 µM [inhibitor, partial curve, poor fit]
O=C(c1cccc(Cl)c1)N1CCC(N2CC3CCCN3C2=O)CC1 (stereo not drawn)	inconclusive: 79.4 µM [inhibitor, partial curve, poor fit]
Cc1ccc(OCC(=O)NCC2Cn3cccc3C(=O)N2C)cc1 (stereo not drawn)	inactive

SMILES	Potency
COc1ccc(CNC(=O)C2CCN(C(=O)c3ccc(-c4cncnc4)cc3)CC2)cc1	inconclusive: 10 µM [inhibitor, full curve, poor fit]
CC(C)NC(=O)C1CCc2nnc(CNC(=O)Nc3cccnc3)n21 (stereo not drawn)	inactive
O=C(NCCNC(=O)c1ccccc1F)c1ccc(-c2cccc(C(F)(F)F)c2)cc1	inactive
CC1=C[C@@H](CNC(=O)c2ccccc2)[C@H](C(C)C)C[C@H]1Cc1nc2ccc(C)cc2[nH]1	active: 50.1 µM
O=C(c1ccc(Cl)cc1Cl)N1CCN(c2cc(-c3ccccc3)[nH]n2)CC1	active: 20 µM
COc1cccc(-c2cc(C3CCN(S(=O)(=O)c4ccc(C#N)cc4)CC3)[nH]n2)c1	active: 28.2 µM
CCn1ccc(C(=O)N2CCC(F)(c3nc(-c4ccncc4)no3)CC2)n1	inconclusive: 89.1 µM [inhibitor, single point]
CCN1c2cc(C(=O)Nc3ccc(F)cc3F)ccc2C(=O)N2CCCCCC21 (stereo not drawn)	inconclusive: 56.2 µM [inhibitor, partial curve, poor fit]
CC(C)Cc1cc(C[C@@H]2C[C@H](NC(=O)C3CCC3)C2(C)C)no1	inconclusive: 35.5 µM [inhibitor, partial curve, poor fit]
CCOC(=O)[C@H]1C[C@]2(CCCCN(CCO)C2=O)N(C(=O)CC(C)(C)C)[C@H]1c1ccco1	inactive
COc1ccc(-c2cn3cc(C(=O)NCc4ccc(F)c(F)c4)nc3s2)cc1	active: 12.6 µM
CC(C)CNC(=O)c1ccc2nnc(Cc3ccc(Cl)cc3)n2c1	inconclusive: 100 µM [inhibitor, partial curve]
CCN1c2cc(C(=O)Nc3cc(OC)ccc3OC)ccc2C(=O)N2CCCCCC21 (stereo not drawn)	inconclusive: 39.8 µM [inhibitor, partial curve, poor fit]
COC(=O)CNC(=O)N1CCC(Cc2noc(-c3ccc(OC)cc3)n2)C1 (stereo not drawn)	inconclusive: 100 µM [inhibitor, single point]
Cc1nn(-c2ccccc2)c2c1C(C)N(CC1CN(Cc3ccc(C(F)(F)F)cc3)C1)C2=O (stereo not drawn)	active: 31.6 µM
CC(=O)Nc1ccc(NC(=O)c2cc(-c3ccncc3)cn2Cc2ccccc2C)cc1	inconclusive: 22.4 µM [inhibitor, full curve]
Cc1cc(F)ccc1NC(=O)CN1C(=O)NC2(CCC(C(C)(C)C)CC2)C1=O (stereo not drawn)	inconclusive: 56.2 µM [inhibitor, partial curve, poor fit]
O=[S+]([O-])(c1ccccc1)N1CC2(COCCN(Cc3cc(F)ccc3F)C2)C1	inconclusive: 89.1 µM [inhibitor, partial curve]
COc1cccc(CNC(=O)N2CC(c3noc(-c4ccncc4)n3)C2)c1	inactive
COc1cccc(-c2ccc(C(=O)NCCNC(=O)N(C)C)cc2)c1	inconclusive: 89.1 µM [inhibitor, single point]
Cc1nn(-c2ccccc2)c2c1C(C)N(C1CCN(C(=O)C(C)C)C1)C2=O (stereo not drawn)	inconclusive: 89.1 µM [inhibitor, single point]
